# Measurements from the supplement of paper PMC8728848.
# This is one part of the list.
# How the values were obtained:
# Assay in all cases: glycan array binding signal (z-score within array); higher = stronger binding
# Settings in all cases: glycan notation: IUPAC condensed, linker removed
# [1] = biological target: Neu5Ac(a2-3)Gal(b1-4)GlcNAc(b1-6)GalNAc
# Method in brief: (§1)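 From the Consortium for Functional Glycomics database, 3228 arrays were curated, keeping only those whose protein sequence was available. Binding is given as a within-array Z-score averaged across arrays sharing a protein sequence and across linkers. Negative Z-scores can be read as non-binding.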
# [2] = biological target: Neu5Ac(a2-3)Gal(b1-4)GlcNAc(b1-6)[Gal(b1-3)]GalNAc
# Method in brief: as §1
# [3] = biological target: Neu5Ac(a2-3)Gal(b1-4)GlcNAc(b1-6)[Neu5Ac(a2-3)Gal(b1-3)]GalNAc
# Method in brief: as §1
# [4] = biological target: Neu5Ac(a2-3)Gal(b1-4)GlcNAc6S
# Method in brief: as §1
# [5] = biological target: Neu5Ac(a2-3)Gal(b1-4)[Fuc(a1-3)]GlcNAc
# Method in brief: as §1
# [6] = biological target: Neu5Ac(a2-3)Gal(b1-4)[Fuc(a1-3)]GlcNAc(b1-2)Man
# Method in brief: as §1
# [7] = biological target: Neu5Ac(a2-3)Gal(b1-4)[Fuc(a1-3)]GlcNAc(b1-3)Gal
# Method in brief: as §1
# [8] = biological target: Neu5Ac(a2-3)Gal(b1-4)[Fuc(a1-3)]GlcNAc(b1-3)Gal(b1-4)GlcNAc
# Method in brief: as §1
# [9] = biological target: Neu5Ac(a2-3)Gal(b1-4)[Fuc(a1-3)]GlcNAc(b1-3)Gal(b1-4)[Fuc(a1-3)]GlcNAc(b1-3)Gal(b1-4)[Fuc(a1-3)]GlcNAc
# Method in brief: as §1
# [10] = biological target: Neu5Ac(a2-3)Gal(b1-4)[Fuc(a1-3)]GlcNAc(b1-3)GalNAc
# Method in brief: as §1
# [11] = biological target: Neu5Ac(a2-3)Gal(b1-4)[Fuc(a1-3)]GlcNAc(b1-6)[Gal(b1-3)]GalNAc
# Method in brief: as §1
# [12] = biological target: Neu5Ac(a2-3)Gal(b1-4)[Fuc(a1-3)]GlcNAc(b1-6)[Neu5Ac(a2-3)Gal(b1-3)]GalNAc
# Method in brief: as §1
# [13] = biological target: Neu5Ac(a2-3)Gal(b1-4)[Fuc(a1-3)]GlcNAc6S
# Method in brief: as §1
# [14] = biological target: Neu5Ac(a2-3)Gal6S(b1-4)GlcNAc
# Method in brief: as §1
# [15] = biological target: Neu5Ac(a2-3)Gal6S(b1-4)[Fuc(a1-3)]GlcNAc
# Method in brief: as §1
# [16] = biological target: Neu5Ac(a2-3)GalNAc
# Method in brief: as §1
# [17] = biological target: Neu5Ac(a2-3)GalNAc(b1-4)GlcNAc
# Method in brief: as §1
# [18] = biological target: Neu5Ac(a2-3)[GalNAc(b1-4)]Gal(b1-4)Glc
# Method in brief: as §1
# [19] = biological target: Neu5Ac(a2-3)[GalNAc(b1-4)]Gal(b1-4)GlcNAc
# Method in brief: as §1
# [20] = biological target: Neu5Ac(a2-3)[GalNAc(b1-4)]Gal(b1-4)GlcNAc(b1-3)GalNAc
# Method in brief: as §1
# [21] = biological target: Neu5Ac(a2-3)[Neu5Ac(a2-6)]GalNAc
# Method in brief: as §1
# [22] = biological target: Neu5Ac(a2-6)Gal
# Method in brief: as §1
# [23] = biological target: Neu5Ac(a2-6)Gal(b1-3)GlcNAc(b1-3)[Gal(b1-4)GlcNAc(b1-6)]Gal(b1-4)Glc
# Method in brief: as §1
# [24] = biological target: Neu5Ac(a2-6)Gal(b1-4)Glc
# Method in brief: as §1
# [25] = biological target: Neu5Ac(a2-6)Gal(b1-4)GlcNAc
# Method in brief: as §1
# [26] = biological target: Neu5Ac(a2-6)Gal(b1-4)GlcNAc(b1-2)Man
# Method in brief: as §1
# [27] = biological target: Neu5Ac(a2-6)Gal(b1-4)GlcNAc(b1-2)Man(a1-3)Man(b1-4)GlcNAc(b1-4)GlcNAc
# Method in brief: as §1
# [28] = biological target: Neu5Ac(a2-6)Gal(b1-4)GlcNAc(b1-2)Man(a1-3)[Gal(b1-4)GlcNAc(b1-2)Man(a1-6)]Man(b1-4)GlcNAc(b1-4)GlcNAc
# Method in brief: as §1
# [29] = biological target: Neu5Ac(a2-6)Gal(b1-4)GlcNAc(b1-2)Man(a1-3)[GlcNAc(b1-2)Man(a1-6)]Man(b1-4)GlcNAc(b1-4)GlcNAc
# Method in brief: as §1
# [30] = biological target: Neu5Ac(a2-6)Gal(b1-4)GlcNAc(b1-2)Man(a1-3)[GlcNAc(b1-4)][Neu5Ac(a2-6)Gal(b1-4)GlcNAc(b1-2)Man(a1-6)]Man(b1-4)GlcNAc(b1-4)GlcNAc
# Method in brief: as §1
# [31] = biological target: Neu5Ac(a2-6)Gal(b1-4)GlcNAc(b1-2)Man(a1-3)[Man(a1-6)]Man(b1-4)GlcNAc(b1-4)GlcNAc
# Method in brief: as §1
# [32] = biological target: Neu5Ac(a2-6)Gal(b1-4)GlcNAc(b1-2)Man(a1-3)[Neu5Ac(a2-3)Gal(b1-4)GlcNAc(b1-2)Man(a1-6)]Man(b1-4)GlcNAc(b1-4)GlcNAc
# Method in brief: as §1
# [33] = biological target: Neu5Ac(a2-6)Gal(b1-4)GlcNAc(b1-2)Man(a1-3)[Neu5Ac(a2-6)Gal(b1-4)GlcNAc(b1-2)Man(a1-6)]Man(b1-4)GlcNAc(b1-4)GlcNAc
# Method in brief: as §1
# [34] = biological target: Neu5Ac(a2-6)Gal(b1-4)GlcNAc(b1-2)Man(a1-3)[Neu5Ac(a2-6)Gal(b1-4)GlcNAc(b1-2)Man(a1-6)]Man(b1-4)GlcNAc(b1-4)[Fuc(a1-6)]GlcNAc
# Method in brief: as §1
# [35] = biological target: Neu5Ac(a2-6)Gal(b1-4)GlcNAc(b1-2)Man(a1-6)Man(b1-4)GlcNAc(b1-4)GlcNAc
# Method in brief: as §1
# [36] = biological target: Neu5Ac(a2-6)Gal(b1-4)GlcNAc(b1-2)Man(a1-6)[Gal(b1-4)GlcNAc(b1-2)Man(a1-3)]Man(b1-4)GlcNAc(b1-4)GlcNAc
# Method in brief: as §1
# [37] = biological target: Neu5Ac(a2-6)Gal(b1-4)GlcNAc(b1-2)Man(a1-6)[GlcNAc(b1-2)Man(a1-3)]Man(b1-4)GlcNAc(b1-4)GlcNAc
# Method in brief: as §1
# [38] = biological target: Neu5Ac(a2-6)Gal(b1-4)GlcNAc(b1-2)Man(a1-6)[Man(a1-3)]Man(b1-4)GlcNAc(b1-4)GlcNAc
# Method in brief: as §1
# [39] = biological target: Neu5Ac(a2-6)Gal(b1-4)GlcNAc(b1-2)[Neu5Ac(a2-6)Gal(b1-4)GlcNAc(b1-4)]Man(a1-3)[GlcNAc(b1-4)][Neu5Ac(a2-6)Gal(b1-4)GlcNAc(b1-2)[Neu5Ac(a2-6)Gal(b1-4)GlcNAc(b1-6)]Man(a1-6)]Man(b1-4)GlcNAc(b1-4)GlcNAc
# Method in brief: as §1
# [40] = biological target: Neu5Ac(a2-6)Gal(b1-4)GlcNAc(b1-2)[Neu5Ac(a2-6)Gal(b1-4)GlcNAc(b1-4)]Man(a1-3)[GlcNAc(b1-4)][Neu5Ac(a2-6)Gal(b1-4)GlcNAc(b1-4)Man(a1-6)]Man(b1-4)GlcNAc(b1-4)GlcNAc
# Method in brief: as §1
# [41] = biological target: Neu5Ac(a2-6)Gal(b1-4)GlcNAc(b1-2)[Neu5Ac(a2-6)Gal(b1-4)GlcNAc(b1-6)]Man(a1-6)[Neu5Ac(a2-6)Gal(b1-4)GlcNAc(b1-2)Man(a1-3)][GlcNAc(b1-4)]Man(b1-4)GlcNAc(b1-4)GlcNAc
# Method in brief: as §1
# [42] = biological target: Neu5Ac(a2-6)Gal(b1-4)GlcNAc(b1-3)Gal(b1-3)GlcNAc
# Method in brief: as §1
# [43] = biological target: Neu5Ac(a2-6)Gal(b1-4)GlcNAc(b1-3)Gal(b1-4)GlcNAc
# Method in brief: as §1
# [44] = biological target: Neu5Ac(a2-6)Gal(b1-4)GlcNAc(b1-3)Gal(b1-4)GlcNAc(b1-2)Man(a1-3)[Neu5Ac(a2-6)Gal(b1-4)GlcNAc(b1-3)Gal(b1-4)GlcNAc(b1-2)Man(a1-6)]GalNAc
# Method in brief: as §1
# [45] = biological target: Neu5Ac(a2-6)Gal(b1-4)GlcNAc(b1-3)Gal(b1-4)GlcNAc(b1-3)Gal(b1-4)GlcNAc
# Method in brief: as §1
# [46] = biological target: Neu5Ac(a2-6)Gal(b1-4)GlcNAc(b1-3)Gal(b1-4)GlcNAc(b1-3)Gal(b1-4)GlcNAc(b1-2)Man(a1-3)[Neu5Ac(a2-6)Gal(b1-4)GlcNAc(b1-3)Gal(b1-4)GlcNAc(b1-3)Gal(b1-4)GlcNAc(b1-2)Man(a1-6)]GalNAc
# Method in brief: as §1
binder,measurement,setting,value
Cohesin-hMARCO (Homo sapiens) (protein) LDDLDAVRIKVDTVNAKPGDTVRIPVRFSGIPSKGIANCDFVYSYDPNVLEIIEIEPGDIIVDPNPDKSFDTAVYPDRKIIVFLFAEDSGTGAYAITKDGVFATIVAKVKEGAPNGLSVIKFVEVGGFANNDLVEQKTQFFDGGANVGDTTEPATPTTPVTTPTTTDDLDAASVRIVGSSNRGRAEVYYSGTWGTICDDEWQNSDAIVFCRMLGYSKGRALYKVGAGTGQIWLDNVQCRGTESTLWSCTKNSWGHHDCSHEEDAGVECSVHHHHHH,glycan array binding signal (z-score),[1],0.969
same,glycan array binding signal (z-score),[2],-0.481
same,glycan array binding signal (z-score),[3],-0.569
same,glycan array binding signal (z-score),[4],-0.305
same,glycan array binding signal (z-score),[5],-0.198
same,glycan array binding signal (z-score),[6],2.21
same,glycan array binding signal (z-score),[7],-0.287
same,glycan array binding signal (z-score),[8],-0.532
same,glycan array binding signal (z-score),[9],-0.404
same,glycan array binding signal (z-score),[10],-0.191
same,glycan array binding signal (z-score),[11],-0.185
same,glycan array binding signal (z-score),[12],-0.409
same,glycan array binding signal (z-score),[13],0.051
same,glycan array binding signal (z-score),[14],-0.346
same,glycan array binding signal (z-score),[15],-0.41
same,glycan array binding signal (z-score),[16],-0.477
same,glycan array binding signal (z-score),[17],-0.484
same,glycan array binding signal (z-score),[18],-0.018
same,glycan array binding signal (z-score),[19],-0.359
same,glycan array binding signal (z-score),[20],0.154
same,glycan array binding signal (z-score),[21],-0.335
same,glycan array binding signal (z-score),[22],-0.407
same,glycan array binding signal (z-score),[23],-0.4
same,glycan array binding signal (z-score),[24],-0.411
same,glycan array binding signal (z-score),[25],0.003
same,glycan array binding signal (z-score),[26],-0.526
same,glycan array binding signal (z-score),[27],-0.523
same,glycan array binding signal (z-score),[28],-0.418
same,glycan array binding signal (z-score),[29],-0.492
same,glycan array binding signal (z-score),[30],-0.514
same,glycan array binding signal (z-score),[31],-0.559
same,glycan array binding signal (z-score),[32],-0.554
same,glycan array binding signal (z-score),[33],-0.385
same,glycan array binding signal (z-score),[34],0.131
same,glycan array binding signal (z-score),[35],-0.581
same,glycan array binding signal (z-score),[36],-0.561
same,glycan array binding signal (z-score),[37],-0.356
same,glycan array binding signal (z-score),[38],-0.445
same,glycan array binding signal (z-score),[39],-0.067
same,glycan array binding signal (z-score),[40],-0.104
same,glycan array binding signal (z-score),[41],-0.413
same,glycan array binding signal (z-score),[42],-0.475
same,glycan array binding signal (z-score),[43],-0.161
same,glycan array binding signal (z-score),[44],-0.37
same,glycan array binding signal (z-score),[45],-0.582
same,glycan array binding signal (z-score),[46],-0.27
